# Data: PubChem BioAssay AID1508624 (National Center for Advancing Translational Sciences (NCATS), 2021)
# The whole screen tested about 48,000 compounds, of which about 120 (0.25%) were called active. Not shown: some 4% with an inconclusive outcome. Calls come from the whole dose curve; as a rule, active = well fitted activation curve with a large enough effect; inconclusive = small, poorly fitted or top-dose-only effect, or another doubt; inactive = no such curve, though single readings can be large or run the other way. This is one part of the list.
# Experiment: Primary qHTS for Identification of Small Molecule Activators of Huntingtin-Antisense Promoter Activity; note: nearly all actives have a fitted effect of over 55% in size
# Settings: HEK293 HTT-AS promoter firefly luciferase reporter, 24 h; series mostly up to 57.5 µM; activity change, positive = activation: at the top concentration
# How it was run: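 Firefly luciferase signal from promoter-reporter HEK293 cells was scaled between vehicle (0%) and zero RLU (-100%). Compounds were tested at final concentrations of up to 57.5 uM over 24 h at 37 degrees C. PTC124 at 50 uM final served as control inhibitor.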
# Potency is the fitted concentration of half-maximal effect.
Structure (SMILES),"activity change, positive = activation",Potency
Cc1nc2nncn2c(Nc2ccc(F)cc2)c1C,inactive: -33.3%,–
CCC(=O)N1CCc2cc(S(=O)(=O)NCCC(=O)NCc3ccc(OC)cc3)ccc21,inactive: 0.962%,–
COc1cccc(-n2c(=O)c3sccc3n(Cc3cc(=O)n4cc(Cl)ccc4n3)c2=O)c1,inactive: -15.3%,–
CCCCCCCCCCCCOCCOCCOCCOCCOCCOCCOCCOCCOCCO,inactive: -71.7%,–
Cc1cc2nc(-c3cccc(NC(=O)COc4ccc(C(C)C)cc4)c3)oc2cc1C,–,active: 1000 nM
Cc1ccc(N(C)S(=O)(=O)c2c(-c3ccccc3)csc2C(=O)O)cc1,inactive: -10.6%,–
COc1ccc(N2CCN(C(=O)c3c(C)oc4nc(C)nc(N5CCCC5)c34)CC2)cc1,inactive: -2.39%,–
COc1ccc(-c2nc(C)c(CCNC(=O)c3cccs3)s2)cc1,inactive: 18.6%,–
Cc1nc2c([nH]1)CCN(C(=O)c1ccc(NC(=O)c3ccccc3-c3ccccc3)cc1)c1ccccc1-2,inactive: -21.3%,–
COc1cc([C@@H]2c3cc4c(cc3[C@H](O)[C@H]3COC(=O)[C@@H]23)OCO4)cc(OC)c1OC,inactive: -25.1%,–
COc1cc(Cl)c(C)cc1NC(=O)c1nn(-c2ccc(C)cc2)c(=O)n(C)c1=O,inactive: -5.06%,–
CCOc1ccc(S(=O)(=O)N(C(C)=O)c2ccc3oc(C)c(C(=O)OC)c3c2)cc1,inactive: -79.1%,–
Cc1ccc(CSc2nc3ccncc3n2Cc2nc(-c3ccc(Cl)cc3)oc2C)cc1,inactive: 9.68%,–
CCOc1ccc(N2CC(NC(=O)c3cc4ccccc4o3)CC2=O)cc1 (centres undefined),inactive: -6.3%,–
COc1cccc(NC(=O)CSc2c(C)cnc3c2c(=O)n(C)c(=O)n3C)c1,inactive: -23.2%,–
CCOC(=O)c1ccc(NC(=O)C(=O)NCCc2ccc(OC)cc2)cc1,"inactive: 10.6% [at 11.5 µM, percent change from vehicle, -100% = no light]",–
COc1ccc2oc(=O)c(C(=O)N3CCN(c4cc(Cl)ccc4Cl)CC3)cc2c1,inactive: -18.8%,–
Cc1ccc(C)c(NC(=O)Cn2c(-c3nonc3N)nc3ccccc32)c1,inactive: -25.2%,–
COc1ccccc1N1CCN(C(=O)c2cnn(C(C)(C)C)c2C2CCN(C(=O)OC(C)(C)C)CC2)CC1,inactive: -13.9%,–
Cc1ccc(C(=O)Nc2cc3cc(Cl)ccc3oc2=O)cc1,inactive: -18.6%,–
Cc1ccc(-c2nc(CCNC(=O)C(=O)Nc3ccc(F)cc3F)cs2)cc1,inactive: -4.99%,–
Cc1ccc2c(c1)N(CC(=O)NCCCN1CCCCC1)C(=O)c1cccnc1O2,inactive: -5.71%,–
COc1ccccc1CNC(=O)CCCN1C(=O)CCn2nc(-c3cn(C)c4ccccc34)cc21,inactive: -9.41%,–
COc1ccccc1NCc1nnc2n1CCCCC2,inactive: 0.0993%,–

Structure (SMILES),"activity change, positive = activation",Potency
CC(C)C(=O)Nc1c(C(=O)N2CCN(c3ccccc3F)CC2)oc2ccccc12,inactive: -11%,–
Fc1ccc(C(c2nnc(-c3ccccc3)o2)N2CCN(c3ccccc3)CC2)c(Cl)c1 (centres undefined),inactive: -29.9%,–
Cc1ccc(-c2nc3sc(CCNC(=O)c4ccco4)c(C)n3n2)cc1,inactive: -11.3%,–
O=C(NCc1ccc(Cl)cc1)c1ccc2oc(=O)n(Cc3ccccc3)c2c1,inactive: -39.7%,–
CCOC(=O)Cn1c(=O)oc2cc(S(=O)(=O)N3CCCC(C)C3)ccc21 (centres undefined),inactive: -19.7%,–
CCCCn1cc(S(=O)(=O)c2ccc(Cl)cc2)c(=O)c2cc(F)c(N3CCCC(C)C3)cc21 (centres undefined),inactive: -13.2%,–
CCOC(=O)c1cc(S(=O)(=O)N2CCN(c3cccc(OC)c3)CC2)[nH]n1,inactive: -6.61%,–
COC(=O)c1c(-c2ccc(Cl)cc2)noc1N1CCN(c2cccc(C)c2C)CC1,inactive: -20.2%,–
CCc1cnc2c(c1SCC(=O)Nc1ccc(OC)c(OC)c1)c(=O)n(C)c(=O)n2C,inactive: -13.4%,–
COc1ccc(Nc2cc(C(=O)NCc3cccs3)c3ccccc3n2)cc1,inactive: 9.7%,–
CCCCOC(=O)Cn1nnc2sc(-c3ccccc3)cc2c1=O,inactive: -2.12%,–
COc1ccc(CCNC(=O)CSc2cn(CCNC(=O)c3ccccc3F)c3ccccc23)cc1OC,inactive: -26.9%,–
CN1CCN(C(=O)C(=O)Nc2c3c(nn2-c2cccc(Cl)c2)CSC3)CC1,inactive: -8.24%,–
O=C(CSc1ncc(-c2ccccc2)[nH]1)Nc1ccc(F)cc1F,inactive: 5.78%,–
COc1cc(C(=O)N2CCC(N3CCN(C)CC3)CC2)ccc1Nc1ncc2c(n1)N(C)c1ccccc1C(=O)N2C,inactive: -6.9%,–
CCOC(=O)c1c(C)[nH]c(C)c1S(=O)(=O)N1CCCC(C(=O)NCc2ccc(C)cc2)C1 (centres undefined),inactive: 10.5%,–
Cc1ccc(Cn2c(=O)n(CCc3ccccc3)c(=O)c3c(C)c(C)sc32)cc1,inactive: -0.473%,–
CCc1ccccc1N1C(=O)N(CC(=O)c2ccc(Cl)cc2)c2ccccc2S1(=O)=O,inactive: -27.6%,–
COC(=O)c1c(SC)nc2ccccc2c1OCc1ccc(C)cc1,inactive: 5.19%,–
Clc1ccc(C(Cn2ccnc2)OCc2ccsc2Cl)c(Cl)c1 (centres undefined),inactive,–
CCOC(=O)c1noc2ncn(Cc3cccc(C#N)c3)c(=O)c12,inactive: 5.4%,–
O=C(CCCn1c(=O)[nH]c2ccsc2c1=O)N1CCN(c2cccc(C(F)(F)F)c2)CC1,inactive: -24.8%,–
Cc1cc(Cl)ccc1NC(=O)CN1C(=O)COc2ccc(S(=O)(=O)N3CCC(C)CC3)cc21,inactive: -16.8%,–
COc1ccccc1CN(Cc1ccco1)c1cnc(S(C)(=O)=O)nc1C(=O)Nc1ccccc1Cl,inactive: -23.4%,–

Structure (SMILES),"activity change, positive = activation",Potency
CCOc1ccc(CCNC(=O)CCCc2nnc3n(C)c(=O)c4sccc4n23)cc1OCC,inactive: 6.13%,–
Cc1c(C(=O)OC2CCC(C)CC2)[nH]c2c1C(=O)CC(c1ccccc1Cl)C2 (centres undefined),inactive: -17%,–
COc1ccc(OCC(=O)Nc2nc(-c3ccc(Br)cc3)ns2)cc1,inactive: 6.81%,–
COc1ccc(NC(=O)NCc2c(-n3cccc3)sc3c2CCCC3)c(OC)c1,inactive: 5.24%,–
CCNc1nc(NC(C)CC)nc(Oc2ccc(OCC)nn2)n1 (centres undefined),inactive: 1.92%,–
CCc1cccc(C)c1NC(=O)NC1COc2ccccc2C1 (centres undefined),inactive: -13.9%,–
COc1ccc(NC(=O)CSc2nc(-c3ccc(OC)c(OC)c3)[nH]c2-c2ccc(C)cc2)cc1,inactive: -17.8%,–
CCOC(=O)Cc1ccc(NC(=O)N(C(C)C)C2CCN(C(C)=O)CC2)cc1,inactive: -0.526%,–
COc1ccc(NCc2cc3cc4c(cc3n(CC(=O)Nc3ccccc3)c2=O)OCO4)cc1,inactive: -9.52%,–
CCOc1ccc(CNC(=O)Cn2cc3c(n2)-c2c(oc(C(=O)N4CCCC4)c2C)CC3)cc1,inactive: -37.3%,–
CCCC1=Nc2cc(C(=O)NCC(C)c3ccccc3)ccc2Sc2ccccc21 (centres undefined),inactive: -33.9%,–
COc1cccc(CNC(=O)Cn2nc3c(cc2=O)CCCC3)c1OC,inactive: -5.39%,–
Cc1ccc(C2c3c(-c4ccccc4O)n[nH]c3C(=O)N2CCc2ccccc2)cc1 (centres undefined),inactive: -34.9%,–
CC1CCCN(C(=O)CCS(=O)(=O)c2cc3c(cc2Cl)NC(=O)CO3)C1 (centres undefined),inactive: -8.56%,–
CC(C)c1ccc(NC(=O)CN2C(=O)CCc3cc(S(=O)(=O)N4CCOCC4)ccc32)cc1,inactive: -13%,–
COc1ccc(C(=O)N2CCN(C(=O)COc3ccc(C)cc3)CC2)cc1OC,inactive: 2.69%,–
O=C(Cn1cc(S(=O)(=O)N2CCN(c3ccccc3F)CC2)c2ccccc2c1=O)Nc1ccc(F)cc1Cl,inactive: -16.1%,–
COc1cc2c(C(=O)N3CCN(c4cc(Cl)ccc4C)CC3)cn(CC(C)C)c(=O)c2cc1OC,inactive: -32.2%,–
COc1ccc(S(=O)(=O)NCCc2sc(-c3cccc(F)c3)nc2C)cc1,inactive: -21.9%,–
O=C(Nc1ccccc1F)C(Cc1ccccc1)N1Cc2ccccc2C1=O (centres undefined),inactive: 1.65%,–
CC(C)c1ccc(NC(=O)c2ccc(F)c(S(=O)(=O)N3CCN(c4ccccc4F)CC3)c2)cc1,inactive: -12.5%,–
CCCOc1ccc(-c2cccc(NS(=O)(=O)c3ccc(CC)cc3)c2)nn1,inactive: -28.5%,–
COc1ccc(NC(=O)CN2CCN(c3ccccc3F)CC2)c(OC)c1,inactive: -10%,–
CCC1=C(c2ccc(C)cc2)S(=O)(=O)N=C1N1CCC(C(=O)NCc2ccc(C)cc2)CC1,inactive: -37.9%,–

Structure (SMILES),"activity change, positive = activation",Potency
c1cnc(N2CCN(Cc3ccc4c(c3)OCO4)CC2)nc1,inactive: -2.71%,–
Cc1ccc(NC(=O)CSc2nccn2Cc2ccc3c(c2)OCO3)c(C)c1,inactive: 8.37%,–
Cc1ccc(C(=O)/C=C/c2cn(CC(O)CN3CCCCCC3)c3ccccc23)cc1 (centres undefined),inactive: -21.4%,–
Cc1cc(C)c(NC(=O)CN(C)S(=O)(=O)c2ccc3c(c2)c(=O)n(C)c(=O)n3C)c(C)c1,inactive: -11.9%,–
CCCSCCCNC(=O)CN1C(=O)CCn2nc(-c3cn(C)c4ccccc34)cc21,inactive: -1.92%,–
CCC(C)NC(=O)CCC(=O)NNc1nc2ccccc2c2nc(C)nn12 (centres undefined),inactive: -3.9%,–
Cc1ccc(-c2nn3c(=O)cc(CN4CCN(C(=O)c5ccc(C(C)(C)C)cc5)CC4)nc3s2)cc1,inactive: -10.9%,–
CCc1ccc(S(=O)(=O)n2ccnc2)cc1,inactive: -6.66%,–
O=C(Nc1ccc(F)cc1F)N1CCc2c(sc3c2CCCC3)C1c1ccc(F)cc1 (centres undefined),inactive: -4.75%,–
COc1cc(NS(=O)(=O)c2ccc(NC(=O)c3ccc(OC)c(Br)c3)cc2)nc(OC)n1,inactive: -11.9%,–
Cn1c(=O)c2c(n3c4ccccc4nc13)NC(=O)CC2c1cccc(Cl)c1 (centres undefined),inactive: -10.1%,–
COc1ccc(Cl)cc1NC(=O)Cn1nnc(C(=O)NCc2ccc3c(c2)OCO3)c1N,inactive: -38.6%,–
COC(=O)c1sccc1S(=O)(=O)N1CCN(c2ccc(C(C)=O)cc2)CC1,inactive: -17.7%,–
C[C@](N)(Cc1ccc(O)c(O)c1)C(=O)O,inactive,–
Cc1ccc(Cn2c(CN3CCC(C(=O)NCC(C)c4ccccc4)CC3)cc3ccccc32)cc1 (centres undefined),inactive: -29.7%,–
Cc1ccc(C)c(N2CCN(C(=O)C3CCCN(S(=O)(=O)c4cccc5nonc45)C3)CC2)c1 (centres undefined),inactive: -37.2%,–
CCOCCc1nn2c(=O)cc(COC(=O)c3cccc(C)c3)nc2s1,inactive: -5.73%,–
Cc1ccc(-c2cc(C(=O)Nc3c(C(=O)c4ccc(C)c(F)c4)oc4ccccc34)no2)cc1,inactive: -1.12%,–
CCOC(=O)c1c(NC(=O)CSc2cn(CCNC(=O)c3c(F)cccc3F)c3ccccc23)sc2c1CCCC2,inactive: -20.9%,–
COc1ccc(S(=O)(=O)NCCc2sc(-c3ccccc3)nc2C)cc1F,inactive: -15.5%,–
Cc1ccc(Cl)cc1N1CCN(S(=O)(=O)c2ccc(-c3cnc(C4CC4)o3)cc2)CC1,inactive: -7.38%,–
CC(=O)c1ccc(NC(=O)c2cc(C3CC3)nc3c2c(C)nn3-c2ccc(C)cc2)cc1,inactive: -6.73%,–
